# Results reported in the supplement of paper PMC4604168 (melanoma cell lines).
# Some of the results follow. Many values rest on one well or one pass, so single values are uncertain.
# Tested on: RVH-421
# Test: cell count relative to DMSO control; melanoma cells; higher = more viable cells
# Conditions: library dose: standard library concentration; 72 h
# 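Further: cells treated in 1,536-well plates, then fixed and DAPI-stained, with nuclei counted from automated high-throughput microscope images.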
row,SMILES,cell count [%]
1,"O=C(O)c1ccc2c(c1)nc(Nc1cccc(Cl)c1)c1ccncc12 + C#Cc1cccc(Nc2ncnc3cc(OCCOC)c(OCCOC)cc23)c1 [erlotinib] (first compound 2 µM, partner dose 4 µM)",65.1
2,"Cc1cc(N2CCOCC2)cc2[nH]c(-c3c(NC[C@@H](O)c4cccc(Cl)c4)cc[nH]c3=O)nc12 + Oc1cc(-c2nc(-c3ccccc3)[nH]c2-c2ccncc2)ccc1Cl [L779450] (first compound 1 µM, partner dose 1 µM)",84.5
3,"O=C(O)[C@@H]1[O][Sb](=[O])([O][Sb]2(=[O])[O][C@H]([C@H](O)CO)[C@H](O)[C@H](C(=O)O)[O]2)[O][C@H]([C@H](O)CO)[C@@H]1O (stereo partly drawn) [stibogluconate] + O=S(=O)(c1ccccc1)N(CC(F)(F)F)c1ccc(C(O)(C(F)(F)F)C(F)(F)F)cc1 [T0901317] (first compound 10 µM, partner dose 7 µM)",76.8
4,"O=C(O)[C@@H]1[O][Sb](=[O])([O][Sb]2(=[O])[O][C@H]([C@H](O)CO)[C@H](O)[C@H](C(=O)O)[O]2)[O][C@H]([C@H](O)CO)[C@@H]1O (stereo partly drawn) [stibogluconate] + Cn1cncc1[C@@](N)(c1ccc(Cl)cc1)c1ccc2c(c1)c(-c1cccc(Cl)c1)cc(=O)n2C [tipifarnib] (first compound 10 µM, partner dose 0.05 µM)",89.7
5,"O=C(Nc1cc(C(F)(F)F)cc(C(F)(F)F)c1)c1cc(Cl)ccc1O + COc1ccc(COc2ccc(Cc3cnc(N)nc3N)cc2OC)cc1 [GW2580] (first compound 0.08 µM, partner dose 5 µM)",99.6
6,"O=C(Nc1cc(C(F)(F)F)cc(C(F)(F)F)c1)c1cc(Cl)ccc1O + Cc1cc([N+](=O)[O-])ccc1NS(=O)(=O)c1cc(Cl)ccc1Cl [FH535] (first compound 0.08 µM, partner dose 5 µM)",58.4
7,"O=C(Nc1cc(C(F)(F)F)cc(C(F)(F)F)c1)c1cc(Cl)ccc1O + Cn1cc(/C=C2\C(=O)Nc3cccnc32)c2ccccc21 [GW441756] (first compound 0.08 µM, partner dose 2 µM)",109
8,"O=C(O)c1ccc2c(c1)nc(Nc1cccc(Cl)c1)c1ccncc12 + CCc1ccc(CCOc2ccc(CC3SC(=O)NC3=O)cc2)nc1 [pioglitazone] (first compound 2 µM, partner dose 10 µM)",69.6
9,"Cc1cc(N2CCOCC2)cc2[nH]c(-c3c(NC[C@@H](O)c4cccc(Cl)c4)cc[nH]c3=O)nc12 + CC(C)CCN1c2nc(Nc3cc(F)c(O)c(F)c3)ncc2N(C)C(=O)C1C [BID1870] (first compound 1 µM, partner dose 1 µM)",84.3
10,"O=C(Nc1ccccc1)c1cc([N+](=O)[O-])ccc1Cl + COc1ccc(-c2ccc3c(N4CCOCC4)nc(N4C[C@@H](C)O[C@@H](C)C4)nc3n2)cc1CO [KU0063794] (first compound 10 µM, partner dose 0.1 µM)",71.1
11,"O=C(O)c1ccc2c(c1)nc(Nc1cccc(Cl)c1)c1ccncc12 + O=c1cc(-c2cccc3c2Sc2ccccc2S3)oc(N2CCOCC2)c1 [KU55933] (first compound 2 µM, partner dose 5 µM)",77.1
12,"O=C(O)c1ccc2c(c1)nc(Nc1cccc(Cl)c1)c1ccncc12 + c1cc(-c2cnn3cc(-c4ccc(OCCN5CCCCC5)cc4)cnc23)ccn1 [Dorsomorphin] (first compound 2 µM, partner dose 2 µM)",91.3
13,"Cn1nnc2c(C(N)=O)ncn2c1=O [temozolomide] + Cc1cc([N+](=O)[O-])ccc1NS(=O)(=O)c1cc(Cl)ccc1Cl [FH535] (first compound 10 µM, partner dose 5 µM)",62.4
14,"O=C(Nc1cc(C(F)(F)F)cc(C(F)(F)F)c1)c1cc(Cl)ccc1O + COc1ccc2c(c1)CCC1C2CCC2(C)C(NCCCCCCN3C(=O)C=CC3=O)CCC12 [U73122] (first compound 0.08 µM, partner dose 2 µM)",126
15,"Cc1cc(N2CCOCC2)cc2[nH]c(-c3c(NC[C@@H](O)c4cccc(Cl)c4)cc[nH]c3=O)nc12 + Oc1nc(-c2ccc(C(F)(F)F)cc2)nc2c1CSCC2 [XAV939] (first compound 1 µM, partner dose 10 µM)",95.6
16,"O=C(Nc1cc(C(F)(F)F)cc(C(F)(F)F)c1)c1cc(Cl)ccc1O + CC(=O)O[C@@]12CO[C@@H]1C[C@H](O)[C@@]1(C)C(=O)[C@H](O)C3=C(C)[C@@H](OC(=O)[C@H](O)[C@@H](NC(=O)OC(C)(C)C)c4ccccc4)C[C@@](O)([C@@H](OC(=O)c4ccccc4)[C@H]21)C3(C)C [Docetaxel] (first compound 0.08 µM, partner dose 0.0005 µM)",50.5
17,"O=C(Nc1ccccc1)c1cc([N+](=O)[O-])ccc1Cl + O=S(=O)(c1ccccc1)N(CC(F)(F)F)c1ccc(C(O)(C(F)(F)F)C(F)(F)F)cc1 [T0901317] (first compound 10 µM, partner dose 7 µM)",63.4
18,"O=C(Nc1cc(C(F)(F)F)cc(C(F)(F)F)c1)c1cc(Cl)ccc1O + CCc1ccc(CCOc2ccc(CC3SC(=O)NC3=O)cc2)nc1 [pioglitazone] (first compound 0.08 µM, partner dose 10 µM)",107
19,"Cn1nnc2c(C(N)=O)ncn2c1=O [temozolomide] + Oc1nc(-c2ccc(C(F)(F)F)cc2)nc2c1CSCC2 [XAV939] (first compound 10 µM, partner dose 10 µM)",80.7
20,"O=C(Nc1cc(C(F)(F)F)cc(C(F)(F)F)c1)c1cc(Cl)ccc1O + C[C@]1(c2nc3c(C(N)=O)cccc3[nH]2)CCCN1 [Veliparib] (first compound 0.08 µM, partner dose 7 µM)",97.2
21,"O=C(O)c1ccc2c(c1)nc(Nc1cccc(Cl)c1)c1ccncc12 + O=C(Nc1ccccc1)c1cc([N+](=O)[O-])ccc1Cl [GW9662] (first compound 2 µM, partner dose 10 µM)",60.6
22,"O=C(O)c1ccc2c(c1)nc(Nc1cccc(Cl)c1)c1ccncc12 + Cn1cc(/C=C2\C(=O)Nc3cccnc32)c2ccccc21 [GW441756] (first compound 2 µM, partner dose 2 µM)",73.8
23,"O=C(O)[C@@H]1[O][Sb](=[O])([O][Sb]2(=[O])[O][C@H]([C@H](O)CO)[C@H](O)[C@H](C(=O)O)[O]2)[O][C@H]([C@H](O)CO)[C@@H]1O (stereo partly drawn) [stibogluconate] + COc1ccc2c(c1)CCC1C2CCC2(C)C(NCCCCCCN3C(=O)C=CC3=O)CCC12 [U73122] (first compound 10 µM, partner dose 2 µM)",118
